Reference: the supplement of paper PMC9334596
Values joined by “and” are separate entries in the source; they are usually repeats but may differ in a detail not shown here. Equal entries are not always repeated. Whole data set: some 5,300 compounds, median “PER2::LUC luminescence relative to vehicle control” near 0.96, cut for the highest 2% near 1.3. Some of the results follow.

Tested on: mPer2Luc MEF
Assay: PER2::LUC luminescence relative to vehicle control (fold of vehicle); higher = higher PER2::LUC reporter signal
Settings: 10 µM
Summary of the method: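 The reported values are PER2::LUC luminescence as fold of vehicle control in mouse embryonic fibroblasts carrying the mPer2Luc reporter. Cells were seeded at ~3000 per well in 384-well plates in DMEM with 10% FBS at 37 °C and 5% CO2, and compounds were added at 10 μM 48 h later. ONE-Glo luminescence was read 24 h and 30 h after treatment.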

SMILES | PER2::LUC luminescence (time after treatment 24 h) | PER2::LUC luminescence (time after treatment 30 h)
N[C@@H](Cc1cc(I)c(Oc2cc(I)c(O)c(I)c2)c(I)c1)C(=O)O | 0.93 and 0.868 | 1.04 and 1.02
CC1(C)CCC(C)(C)c2cc(NC(=O)c3ccc(C(=O)O)cc3)ccc21 | 1.77 | 1.63
CN1C[C@H](O)[C@@H](O)[C@H](O)[C@H]1CO | 0.613 | 0.528
N=C(N)NC(=O)Cc1c(Cl)cccc1Cl | 0.947 | 0.943
O=C1Nc2ccccc2/C1=C1/Nc2ccccc2C1=O | 1.09 | 0.954
Clc1ccc(CSC(Cn2ccnc2)c2ccc(Cl)cc2Cl)cc1 (stereo not drawn) | 1.15 | 1.2
Nc1ncnc2c1ncn2[C@@H]1O[C@H](CO)[C@@H](O)[C@H]1O | 1.2 | 1.05
Cc1cc(C)c(Nc2ccnc(Nc3ccc(C#N)cc3)n2)c(C)c1 | 0.34 | 0.433
C[C@@H](NC(=O)c1ncnc(N)c1Cl)c1ncc(C(=O)Nc2cc(C(F)(F)F)c(Cl)cn2)s1 | 0.835 | 0.927
COc1ccc2c(c1)OCC(Cc1ccc(O)c(OC)c1)C2=O (stereo not drawn) | 0.989 | 0.873
C[n+]1cc2c3c(ccc2c2ccc4cc5c(cc4c21)OCO5)OCO3 | 0.406 and 1.15 | 0.704 and 1.01
CN(C)CCN(Cc1ccccc1)c1ccccn1 | 0.928 and 0.986 | 0.945 and 0.826
CC1CNc2c(cccc2S(=O)(=O)N[C@@H](CCCNC(=N)N)C(=O)N2CC[C@@H](C)C[C@@H]2C(=O)O)C1 (stereo partly drawn) | 1.13 | 0.967
C=CC1=C(C)c2cc3[nH]c(cc4nc(cc5[nH]c(cc1n2)c(C)c5CCC(=O)O)C(CCC(=O)O)=C4C)c(C)c3C=C | 0.988 and 1.03 | 1.09 and 1.15
CO[C@H]1C[C@@H]2CC[C@@H](C)[C@@](O)(O2)C(=O)C(=O)N2CCCC[C@H]2C(=O)O[C@H]([C@H](C)C[C@@H]2CC[C@@H](OCCO)[C@H](OC)C2)CC(=O)[C@H](C)/C=C(\C)[C@@H](O)[C@@H](OC)C(=O)[C@H](C)C[C@H](C)/C=C/C=C/C=C/1C | 0.46 | 0.491
Fc1ccc(Cl)cc1-c1nc(Nc2ccncc2)c2nccnc2n1 | 0.671 | 0.55
Nc1ccn([C@@H]2O[C@H](CO)[C@@H](O)C2(F)F)c(=O)n1 | 0.545 and 0.575 | 0.512 and 0.376
CC(O)C(=O)O.N (stereo not drawn) | 0.956 | 0.88
COc1ccccc1N1CCN(CCN(C(=O)C2CCCCC2)c2ccccn2)CC1 | 1.26 and 1.11 | 1.14 and 1.03
CN1C(=O)CC(c2ccccc2)C1=O (stereo not drawn) | 1.01 and 1.03 | 0.998 and 1.12
CC(=O)O[C@@]12CO[C@@H]1C[C@H](O)[C@@]1(C)C(=O)[C@H](O)C3=C(C)[C@@H](OC(=O)[C@H](O)[C@@H](NC(=O)OC(C)(C)C)c4ccccc4)C[C@@](O)([C@@H](OC(=O)c4ccccc4)[C@H]21)C3(C)C | 0.482 and 0.484 | 0.597 and 0.584

SMILES | PER2::LUC luminescence (time after treatment 24 h) | PER2::LUC luminescence (time after treatment 30 h)
COc1ccc(-c2coc3c(O)c(OC)ccc3c2=O)cc1 | 1.26 | 1.11
CCNC(=O)c1[nH]nc(-c2cc(Cl)c(O)cc2O)c1-c1ccc(OC)cc1 | 0.156 | 0.103
CC(C)c1ccc(NC(=O)Cn2cnc3c2c(=O)n(C)c(=O)n3C)cc1 | 0.992 | 1.12
C[C@H](NC(=O)/C(C#N)=C/c1cccc(Br)n1)c1ccccc1 | 1.06 | 0.721
Cc1c(C2CCN(CCc3ccccc3)CC2)noc1-c1ccc(Cl)cc1 | 0.771 | 0.822
CC(=O)Oc1c(C)c(C)c2c(c1C)CC[C@@](C)(CCC[C@H](C)CCC[C@H](C)CCCC(C)C)O2 | 1.23 | 1.05
CCCC(CCC)C(N)=O | 0.901 | 1
C[C@]12CC[C@@H]3c4ccc(O)cc4CC[C@H]3[C@@H]1CC[C@@H]2O | 1.08 and 1.1 and 1.05 | 1.06 and 1.01 and 1.19
CCN(CC)C(=O)c1cccnc1 | 0.987 and 1.16 | 0.916 and 1.16
O=c1[nH]c(=S)[nH]c(-c2ccccc2)c1Cc1c(O)ccc2ccccc12 | 1.16 and 1.02 | 1.18 and 0.86
CCN(CC)C(=O)c1cccc(C)c1 | 0.911 and 0.926 | 0.906 and 0.866
CCCN(CCC)S(=O)(=O)c1ccc(C(=O)O)cc1 | 0.832 | 0.861
COc1ccc(C(=C2C(=O)Nc3ccccc32)c2ccc(OC)cc2)cc1 | 1.05 | 1.07
CC(C)(C)n1nc(Cc2cccc3ccccc23)c2c(N)ncnc21 | 0.824 | 0.874
CCNC(=O)Nc1ccc(-c2nc3c(c(N4CCOC[C@@H]4C)n2)CCN(C2COC2)C3)cc1 | 0.248 | 0.271
CC(=O)[C@H]1CC[C@H]2[C@@H]3CCC4=CC(=O)CC[C@]4(C)[C@H]3CC[C@]12C | 0.59 | 0.86
Cn1cc(CNCC2CCN(c3ncc(C(=O)NO)cn3)CC2)c2ccccc21 | 0.381 | 0.39
CN(C)CC/C=C1/c2ccccc2Sc2ccc(Cl)cc21 | 0.996 and 0.712 | 0.932 and 0.61
CC(=O)O[C@H]1C[C@@H](OC(C)=O)C(C)(C)[C@@H]2C[C@@H](OC(C)=O)[C@]3(C)[C@H](CC[C@@]4(C)[C@H](c5ccoc5)OC(=O)[C@H]5O[C@@]534)[C@@]12C | 0.727 | 0.817
C[C@@H](O)CCCCn1c(=O)c2c(ncn2C)n(C)c1=O | 0.991 | 0.943
OC(CN1CCC(Cc2ccc(F)cc2)CC1)c1ccc(Cl)cc1 (stereo not drawn) | 0.902 | 0.912

SMILES | PER2::LUC luminescence (time after treatment 24 h) | PER2::LUC luminescence (time after treatment 30 h)
O=C[C@H](O)[C@H]1OC(=O)[C@@H](O)[C@H]1O | 1.14 | 0.922
Cn1c(COc2ccc(CC3SC(=O)NC3=O)cc2)nc2ccccc2c1=O (stereo not drawn) | 1.03 | 1.07
CN(C)CCOC(c1ccccc1)c1ccccc1 | 0.783 | 0.862
CN1CCN(C(=O)C2C(C(=O)O)[C@H]3CC[C@@H]2O3)CC1 (stereo partly drawn) | 0.665 | 0.814
O=C(O)CCCCC(=O)O | 1.03 | 1.03
CCOC(=O)CCNc1cc(N2CCc3ccccc3CC2)nc(-c2ccccn2)n1 | 1.07 | 1.03
COc1ccc2[nH]c([S+]([O-])Cc3ncc(C)c(OC)c3C)nc2n1 (stereo not drawn) | 0.776 | 1.01
O=S(=O)(Nc1ccc(C(O)(C(F)(F)F)C(F)(F)F)cc1)c1cccs1 | 0.923 | 0.893
COc1ccccc1C(=O)Nc1cc2c(cc1N1CCCC1)n(C)c(=O)n2C | 0.799 | 0.715
CC(=O)C1=C(O)C=C2Oc3c(C(C)=O)c(O)c(C)c(O)c3[C@@]2(C)C1=O | 0.981 | 0.95
C=C[C@]1(C)C[C@@H](OC(=O)CS[C@@H]2C[C@H]3CC[C@@H](C2)N3C)[C@]2(C)[C@H](C)CC[C@]3(CCC(=O)[C@H]32)[C@@H](C)[C@@H]1O | 0.651 | 0.685
O=c1cc(-c2ccccc2F)[nH]c2cc3c(cc12)OCO3 | 0.9 | 0.871
Oc1ncnc2[nH]ncc12 | 1.07 | 1.06
O=[N+]([O-])c1ccc(-c2nc(-c3ccc(F)cc3)c(-c3ccncc3)[nH]2)cc1 | 0.945 | 1.06
S=C(S)OC1CC2CC1C1CCCC21 (stereo not drawn) | 0.932 | 0.997
CCOC(=O)C1=C[C@@H](OC(CC)CC)[C@H](NC(C)=O)[C@@H](N)C1 | 0.884 | 0.941
CNCCCC1c2ccccc2C=Cc2ccccc21 | 0.66 and 0.727 | 0.64 and 0.521
CC1(C)C(=O)C=C[C@]2(C)[C@H]3CC[C@@]4(C)[C@H](c5ccoc5)OC(=O)[C@H]5O[C@]54[C@]3(C)C(=O)C[C@@H]12 | 0.881 | 1.07
N#Cc1ccc(-c2cnc3[nH]cc(NC(=O)c4cccnc4)c3c2)cc1 | 0.79 | 0.81
C=CC(=O)Nc1cccc(C)c1Nc1ncc2cc(-c3c(Cl)c(OC)cc(OC)c3Cl)ccc2n1 | 0.603 | 0.512
C[C@]12CCC(=O)C=C1CC[C@@H]1[C@@H]2[C@@H](O)C[C@@]2(C)[C@H]1CC[C@]2(O)C(=O)CO | 0.582 | 0.964

SMILES | PER2::LUC luminescence (time after treatment 24 h) | PER2::LUC luminescence (time after treatment 30 h)
CCCc1cc(=O)[nH]c(=S)[nH]1 | 0.952 | 0.826
COc1ccc(CCN(C)CCCC(C#N)(c2ccc(OC)c(OC)c2)C(C)C)cc1OC (stereo not drawn) | 0.949 and 0.749 | 0.869 and 0.745
Cc1onc(-c2ccccc2)c1-c1ccc(S(N)(=O)=O)cc1 | 0.782 | 0.781
O=C(Nc1ccccc1)c1cc([N+](=O)[O-])ccc1Cl | 0.83 | 0.859
C[N+]1(CCCCC[N+]2(C)CCCC2)CCCC1 | 1.1 and 0.745 | 1.02 and 0.836
C[C@H](NC(=O)C(C)(C)Oc1ccc(C(F)(F)F)cn1)[C@@H](Cc1ccc(Cl)cc1)c1cccc(C#N)c1 | 0.845 | 0.872
CC1=C(CCC(=O)O)c2cc3[nH]c(cc4nc(cc5[nH]c(cc1n2)c(C)c5C(C)O)C(C)=C4C(C)O)c(C)c3CCC(=O)O (stereo not drawn) | 1 | 0.878
CO/N=C(\C(=O)N[C@@H]1C(=O)N2C(C(=O)OCOC(=O)C(C)(C)C)=C(/C=C\c3scnc3C)CS[C@H]12)c1csc(N)n1 | 0.978 and 1.02 | 1.01 and 0.913
Cc1sc(N)c(C(=O)c2cccc(C(F)(F)F)c2)c1C | 1.02 | 0.959
c1ccc2c(Cc3c[nH]c4ccccc34)c[nH]c2c1 | 0.956 and 0.816 | 1.02 and 0.84
CN(N=O)C(=O)N[C@H]1C(O)O[C@H](CO)[C@@H](O)[C@@H]1O (mixture of isomers) | 1.03 | 0.88
CCCCC(=O)O[C@H]1CC[C@H]2[C@@H]3CCc4cc(O)ccc4[C@H]3CC[C@]12C | 1.15 and 1.11 | 1.09 and 1.07
N#Cc1c(O)c2c(-c3ccc(-c4ccccc4O)cc3)csc2[nH]c1=O | 1.04 and 1.02 | 1.03 and 1
CC(C)n1cnc2c(NCc3ccccc3)nc(NCCCO)nc21 | 0.486 | 0.877
COc1ccc(/C=C/C(=O)O)cc1OC | 0.982 | 0.92
NC(N)=Nc1nc(CSCCN/C=N/S(=O)(=O)c2ccc(Br)cc2)cs1 | 0.985 | 0.971
CC(=O)Nc1cc2ccccc2oc1=O | 1.01 | 1.11
Cn1c(NCCN(CCO)CCCc2ccc([N+](=O)[O-])cc2)cc(=O)n(C)c1=O | 0.973 | 0.998
N=C(N)SCCc1ccc(OCc2ccc([N+](=O)[O-])cc2)cc1 | 1.13 | 0.973
Cc1[nH]c2ccccc2c1CCNC(=O)c1cccs1 | 0.818 | 0.862
CC(C)CCC[C@@H](C)[C@H]1CC[C@H]2[C@@H]3CCC4=CC(=NO)CC[C@]4(C)[C@H]3CC[C@]12C | 1.1 | 1.01
